# The supplement of paper PMC10126150
# Sequences with one replicate were seen in a single cluster, so their values are uncertain.
# System: ATP
# Experiment: switch fluorescence ratio, 500 uM ATP over buffer (Cy3 cluster intensity, sum of 5 cycles each) (fold (ratio)); higher = stronger signal-on switching upon ATP binding; sequences stand for … in TCGTCGGCAGCGTCAGATGTGTATAAGAGACAGTTTTTTTTTTTTTTTTTTTTTTTTT…TC
# Details: aptamer strand: ATP DNA aptamer (quencher-CACCTGGGGGAGTATTGCGGAGGAAGG + anchor), 100 nM annealed; ATP concentration: 500 uM; one replicate
# Method in brief: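 Clusters carrying Cy3-labelled switching strands on a modified Illumina MiSeq flow-cell were annealed to 100 nM quencher-labelled ATP aptamer and imaged in selection buffer. They were imaged again after 15 min with 500 uM ATP at 22 °C, over five buffer/ATP cycles with NaOH stripping and re-annealing in between. For each cluster, the fluorescence ratio is the summed Cy3 intensity of the target cycles divided by that of the buffer cycles, averaged per switch-domain sequence. Clusters outside 100-1000 RFU were left out.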
# 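Also: ATP exposure 15 min at 22 °C before imaging.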
row,Sequence,switch fluorescence ratio
1,ATGAGTGGGC,1.03
2,ATTCACAGCG,0.977
3,CCAACAGGAT,1.02
4,GTCCCAAATT,1.03
5,GTGGCAAATT,1.07
6,GACATTATAA,1.02
7,TTAATGCTTC,1.01
8,GCGACCAGA,1.04
9,TTTGGAACAA,1.02
10,CTTCTGTTGT,1.03
11,AGGGCGCAGA,0.992
12,AGGTGGCAAC,1.02
13,GATCTATAG,1.04
14,AGTACGATAA,1.11
15,CCGTTGTCCC,1.22
16,TTTGACAACA,1.02
17,CGGACCAACA,1.25
18,AGCGTGCGCC,0.999
19,GGGTTCACTA,0.984
20,TATATGTAGG,1.06
21,ATGCTCAAGG,1.03
22,AATATATACC,1.08
23,ACGAATGTAC,1.05
24,GGTAAATCGA,0.97
25,GGCCCCGTTC,1.02
26,CTGTGATGTT,1.03

row,Sequence,switch fluorescence ratio
1,CGTGTCAAGG,0.991
2,AGCGTGAAA,0.99
3,AAGAAGCCGA,0.995
4,TGTTCGTTAG,1
5,AATTTACGAG,1.02
6,CCCCATTGGA,1.03
7,ATGGCCTGTT,1.01
8,GTGGGGTTTA,0.995
9,TGATAACGTG,1
10,GTAATCTGAG,1.04
11,CCGAGTATGG,1.11
12,TCGCTATTCA,1.02
13,TGAATTTAAT,0.97
14,TTACGAATTA,0.988
15,TTGGCCCTCT,0.985
16,GGTCGAGAGC,1.01
17,CTGACCGTAA,4.21
18,CATATTTCCC,0.973
19,ATCTGGGACA,1.01
20,ATACGTGTCT,1.03
21,CCGTATGGTC,1.1
22,CATGACATTC,1.04
23,GACCTTGTCC,1.07
24,TTGGGTAA,0.976
25,ATGGGCGCGT,1.07
26,CAGTCTAGAC,1.04

row,Sequence,switch fluorescence ratio
1,AGTCCGTTCT,1.05
2,TTATGAATCG,1.05
3,GGGTAGACTC,0.973
4,ACTACGTAGT,1.01
5,CGAATGGACG,1.18
6,AGATAGGGTT,0.966
7,ATGGCTAGTT,0.97
8,GACGCCTGTC,1.12
9,CGTTCCATTC,1.08
10,ATAGTTGCTT,0.974
11,TGTGTTACTA,0.989
12,TCCCTCACCA,1.06
13,GCAGACAGCG,1.06
14,AGACCAGAAC,1.02
15,TGCGTTACAT,1.03
16,AGATGTGCAA,0.989
17,ACTTGAGGAA,0.954
18,CAGGAATTTC,1.05
19,TCCCAGACCC,1.02
20,GGGACTGTCG,0.842
21,ACCATAGGCC,1.05
22,GTATTGATTG,0.95
23,GATGTGTTCG,1
24,GTGGAACTCC,1.02
25,GTGGCAAACT,1.06
26,AGAGCTCCCA,1.02

row,Sequence,switch fluorescence ratio
1,GCTGATTTCC,1.06
2,AACCGTTTTC,1.02
3,GCCCACCTTA,1.03
4,GGCTTCACTT,1
5,CTATTCTTTT,1.04
6,GTTACCCCTA,1.22
7,TACATCAGAG,1.03
8,GATTGGTGTC,0.892
9,TAGCCCGCGG,0.984
10,GTGCACGATG,0.987
11,GCACTAGTCA,1.05
12,CGTACGTATC,1.08
13,CCCGTAGATT,0.989
14,GTGCGTATGT,0.998
15,TAGAGGTTTT,0.987
16,GACTAACTTG,1.04
17,ATTAATTTA,1.04
18,GTGTAGAGAA,0.981
19,AGGTCTTTGG,1.06
20,AAGGTTCCAT,0.966
21,GTGTGCGGCC,1.01
22,CGATCTTGAT,1.02
23,TTGCTTAAG,1
24,CGACTCTAAG,1.03
25,GATGTGCAAT,1.36
26,CTGGCCTGAT,0.999

row,Sequence,switch fluorescence ratio
1,ACTCTAGACA,1.13
2,AATGCGTTAG,0.958
3,ATTCGACGCT,1.49
4,ATGGAACGAC,1.01
5,CGGTAGAAAA,1.03
6,TAGGGAATAA,1.02
7,CGTCAAGTGT,1
8,CGGCACCGGC,1.11
9,CATGAGTCG,0.985
10,CTTGGATAT,1.01
11,ACCCGCACGT,1.79
12,ACTACGTACT,1.78
13,ACATATTGCG,1.03
14,CATATAGTGT,0.999
15,AACTCGGGTA,0.999
16,GATGGAGCTG,1.04
17,CAAGAAGGTT,0.978
18,TTAGGAAGGC,0.972
19,CAGACCCATT,1.02
20,GGCGACAGGC,1.02
21,GGAGTAGGCC,0.923
22,TAAAATAAA,0.997
23,ACTTTAATCG,1.01
24,CTATGAAGGA,0.997
25,GAAAATATTT,0.991
26,GTTTACACTG,0.996

row,Sequence,switch fluorescence ratio
1,AAATCTCTGT,1.03
2,CGCTAGTGTG,1.02
3,TAACGTCGAA,0.985
4,ACGTCATTTT,1.11
5,TTTGAGA,0.993
6,GGCAAAAAAT,0.977
7,ATGCAAAGTT,0.939
8,TTTAGCTGGC,0.94
9,AACGCACTAT,1.52
10,GTGTACGGGC,0.982
11,CGGTTACTAA,1.01
12,TTCTTCGTAG,1.02
13,TTTCAGTTAT,1.01
14,CTAGTTCTTT,0.981
15,TCAAAGTATT,0.97
16,TTTCCTGGT,1
17,TATAGTTGGT,0.935
18,TGGTTAAGAA,1.02
19,TTGTTGTGTC,0.979
20,CGCAGTTTCA,1.02
21,GAGCAATCT,2.85
22,ATGTGAATGC,1.07
23,TTAGGAAAGA,0.998
24,AGGGGGACCA,0.987
25,TCGCAGTCTA,1.16
26,TTCTCTCCGG,1.22

row,Sequence,switch fluorescence ratio
1,ATACTTTTCC,1.14
2,ATGCTCCTTC,1.04
3,TATAAAGCCA,1.02
4,ACTTGATTCG,1.01
5,TAGATAAAGG,1.03
6,ACATGTTAAA,1.04
7,TCTTGGGGTC,1.06
8,ATGATCGATC,0.971
9,ATTGGTGAAC,1
10,TCCTGGACGG,1.02
11,GACACACATT,1.31
12,ATGGATAGTT,0.963
13,CAGGCTCCG,1.03
14,TCAGTAAT,1.66
15,TTTGGGCGG,0.981
16,CGCGATAAAT,1.01
17,CCGTGCTACC,3.63
18,CTTGGCCGGC,0.994
19,ATTTTGACG,1.01
20,TGAGAGGACT,1.01
21,AGAGGATCCT,1.04
22,GACCTTACAA,1.25
23,GAGCTCAGTC,1.01
24,CTCATTAGCG,1.01
25,AAATCCCATG,1.01
26,TGCGTAACCT,1.75

row,Sequence,switch fluorescence ratio
1,CGCTGCATGA,1.24
2,GTAGGAGCAA,2.68
3,GACTCAAGT,1.02
4,TCGGGTGGGT,1.03
5,CCAGTACGCG,1.06
6,GCTTGAAGAT,0.964
7,TTTATACTCG,1.03
8,TAGATATTGC,1.04
9,GTAGCTGGTA,0.989
10,CGAGAAGGAC,1.26
11,GGATCAGATC,0.998
12,GGTTCGCATA,1.06
13,TCACGCACCA,1.53
14,GGTAGCAGTG,0.922
15,CTAGCCCGTT,1
16,AGCGAAAGTA,1.01
17,TAAATGGTCA,0.99
18,TCATTCATTG,1.01
19,CATTCCCTGC,1.25
